Results taken from the RNAGym collection of RNA variant scans (doi:10.7554/elife.90254).
The source gives no read counts; variants with many changes may rest on few reads.

B1: LINE1-mini (parent)
chain: GGCAGAGCUCAACACAGCGUGGCAAAGUGGCUGUGGCUAGACUGCC

Variants of: B1
Test: self-cleavage, relative activity (ratio to wild type); higher = more cleavage; in vitro, sequencing; the parent is a self-cleaving ribozyme

Variant	self-cleavage
GGCACAGCUCAACACCGCGUGGCAAAGUGGCAGUGGCUGGACUGCC	0
GGCACAGCUCAACACUGCGUAGCCAAGUCGCUGUGGGUAGACUGCC	0.04
GGCACAGCUCAACACAGCGUGGCCAAGUGGCUGUGGCUUGACUGCC	0.02
GGCACAGCUCAACACAGCGUGGCGAUGUGGCUGUGGCUAGACUGCC	0.03
GGCACAGCUCAACACAGCGUGGCACAGUGGCUAUGGAAUGACUGCC	0.03
GGCACAGCUCAACACAGCGUGGCAUAGUGGUCGUCGUUAGACUGGC	0.02
GGCACAGCUCAACACAGCGUGGCAUACUGGCUGCGGCUAGACUGCA	0.14
GGCACAGCUCAACACAGCGUGGCAUAGUGGCUGUGGCCAGACUGCC	0.02
GGCACAGCUCAACACAGCGUGGCAAGGUGGCUGUUGCUAGACUGCC	0.05
GGCACAGCUCAACACAGCGUGGCAAUGUGGCUGUGGCUACACUGCC	0.03
GGCACAGAUCCAAACAGCGUGGCAAAGUGGCUGUGGCUAGACUGCC	0.02
GGCACAGAUCAUCAGAGCGUGGCAAAGUGGAUGUGGCUAGACUGCC	0.19
GGCACAGAUCAACCCAGAAUGGCAAAGUGGCUGUGGCUAGACUGCC	0.07
GGCACAGAUCAACUCAGCGUGGCAAAUUGGCUGUGGCUAGACUGCC	0.6
GGCACAGAUUAACACAGCGUGGCAAAGAGGCUGUGGCUAGACUGCC	0.09
GGCACAGAUCAACACAGCGUGGCAAAGUGGCUGUGGGUAGACUGCU	0.34
GGCACAGAUCAACACAACGUGGAAAAGUGGCUGUGGCUAGACUGCC	0.07
GGCACAGAUCAACACAGCGUGGCAAAGCGGCGGUGGCUAGACUGGC	0.09
GGCACAGUUCAACUCAGCGUGGCAAAGUGGCUGCGGCUAGACUGAC	0.26

Variant	self-cleavage
GGCACAGUUCAACACAGAGUGGCAAAGUUGCUGUUGCUAGACUGCC	0.04
GGCACAGUUCAACACAGCGUGGCAAAGUGGCUGUAGCUAAACUGCC	0.2
GGCACAGUACAAAACAGCGUGGCAAAGUGGCUGUGGCUAUACUGCC	0.13
GGCACAGCUAAUCACAGCGUGGCUAAGUGGCUGUGGCUAGACUGCC	0.02
GGCACAGCUAAACACGGCUUGGCAAAGUGGCUGUGGCUAGACAGCC	0.01
GGCACAGCUAAACACAGCGUGGCCAAGUGGCUGUGGCUAGACUGCC	0.07
GGCACAGCUAAAGAUAGUGUGGCAAAGUAGCUGUAGCUAGACUGCC	0.02
GGCACAGCUAAAGACAGCGUGGCAAAGUGUCUGUGGCUAGAUUGGC	0.02
GGCACAGCUAAAUACAUCGUGGCUAAGUGGCUGUGGCUAAACUGCC	0.03
GGCACAGCUAAACACAGAGUGGCAAAGUGGCUGUGGCUAGACUGCC	0.05
GGCACAGCUGAACACAGCGUGGCACAGUGGGUGUGGCUAGACUGCC	0.02
GGCACAGCUGAAUACAGCGUGGCAAAGUGGUCGUGGCUAGACUGCC	0.02
GGCACAGCUGAACACAGCGUGGCAAAUUGGCUGUGGUUCGACUGCC	0.01
GGCACAGCUCAAAAAAGCGUGGCAAAGUGGCUGUGGCUAGACUGCC	0.06
GGCACAGCUCAAAACAGUGUGGCAAAGUGGCUGUGGCUAGACAGCC	0.06
GGCACAGCUCAAAACAGCGUGGAAAAGUGGCUGUGGCUAGACUGCC	0.1
GGCACAGCUCAAAACAGCUUGGCAAAGUGGGUGUGGCUAGACUGUC	0.02
GGCACAGCUCAAAACAGCGUUGCAAAGUGGCUGUAGCUAGACUGUC	0.07
GGCACAGCUCAAAACAGCGUGGCAAAGUGGCUGUGGCUAGACUCCC	0.06

Variant	self-cleavage
GGCACAGCUCAAGACAGCGUGGCAAUGUGGCUGUGUCUAGACUGCC	0.02
GGCACAGCUCAAGAUAGCGUGGCAAAGUGGCAGUGGCUAGACUGCC	0.12
GGCACAGCUCAAGACAGCGCGGCAAAGUGGCUGUGGCUAGACUGCC	0.01
GGCACAGCUCAAGACAGCGCGGCAAAGUGGCUGUGGCUAGGGUGCC	0.19
GGCACAGCUCAAUCCAGCGUGGCAAAGUGGCUGAGGCUAGACCGCC	0.02
GGCACAGCUCAAUACAGCGUGGCAAGAUGGCUGUGGCUAGACUGCC	0.02
GGCACAGCUCAAUAGAUCGUGGCAAAGUGGCUGUGGCUAGACUGCC	0.01
GGCACAGCUCAAUACAGCUUGGCAAAGUGCCUGUGGCUAGACUGCC	0.03
GGCACAGCUCAAUACAGCGUGUCAAAGUGGCUGUGGCUAGACUGCC	0.31
GGCACAGCUCAAUACAGCGUGGCAAACUGGCUGUGGCUAGACUGGU	0.04
GGCACAGCUCAAUACAGCGUGGCAAAGUGGCUGUGCCUAGUCUGCC	0.03
GGCACAGCUCAACAAAGCGUGGCAAGGUGGCUGUGGCUAGACUGCC	0.03
GGCACAGCUCAACAAAGCGUGGCAAAGUGGCUGUGGCUAGGCUGCC	0.05
GGCACAGCUCAACAAAGCGUGGCAAAAUGGCUGUGGCUAGCCUGCC	0.1
GGCACAGCUCAACAAAGCGUGGCAAAGUGGCUGUGACUAGACUGCC	0.01
GGCACAGCUCAACAGAGCGUGGCAAGGUGGCUGUGGGUAGACUGCC	0.01
GGCACAGCUCAACAUAGUGUGGCAAAGUUGCUGUGGCUAGACUGCC	0.04
GGCACAGCUCAACAUAGCGUGGCAAAGUGGGUGUGGCUAGACUGCC	0.02
